Source: PubChem BioAssay AID1460 (National Center for Advancing Translational Sciences (NCATS), 2008)
Where “and” joins values, the source holds several entries; their conditions need not be identical. Equal values may be shown once. Out of some 270,000 compounds screened, about 5,800 (2.1%) were called active. Inconclusive means that the source gave no clear call. Such entries were picked first, then a sample of the others. Calls follow the shape of the dose curve; as a rule, active = well fitted inhibition curve with a large enough effect; inconclusive = small, poorly fitted or top-dose-only effect; inactive = flat fitted curve, though single readings scatter. Potencies of inconclusive entries are doubtful fits and often do not repeat.

These compounds were tested against Microtubule-associated protein tau (Homo sapiens) (UniProt P10636) (assay: qHTS for Inhibitors of Tau Fibril Formation, Thioflavin T Binding). Details: recombinant tau K18 P301L, heparin-induced fibrillization, ThT fluorescence; series mostly up to 57.4 µM; activity, negative = inhibition: at the top concentration.
How it was run: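 Fibril formation assay: tau K18 P301L at 15 uM with trace Alexa 594 label, heparin inducer 20 uM, pH 7 sodium acetate buffer, 37 C for 6 hr; endpoint ThT signal.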
% is scaled to controls: 0 for no effect and ±100 for the full control effect; potency is read from the fitted curve at half-maximal effect; tags tell the direction and shape of the fitted curve.
Also: nearly all actives have a fitted effect of over 55% in size.

UniProt P10636, sequence (P10636 whole entry, looked up): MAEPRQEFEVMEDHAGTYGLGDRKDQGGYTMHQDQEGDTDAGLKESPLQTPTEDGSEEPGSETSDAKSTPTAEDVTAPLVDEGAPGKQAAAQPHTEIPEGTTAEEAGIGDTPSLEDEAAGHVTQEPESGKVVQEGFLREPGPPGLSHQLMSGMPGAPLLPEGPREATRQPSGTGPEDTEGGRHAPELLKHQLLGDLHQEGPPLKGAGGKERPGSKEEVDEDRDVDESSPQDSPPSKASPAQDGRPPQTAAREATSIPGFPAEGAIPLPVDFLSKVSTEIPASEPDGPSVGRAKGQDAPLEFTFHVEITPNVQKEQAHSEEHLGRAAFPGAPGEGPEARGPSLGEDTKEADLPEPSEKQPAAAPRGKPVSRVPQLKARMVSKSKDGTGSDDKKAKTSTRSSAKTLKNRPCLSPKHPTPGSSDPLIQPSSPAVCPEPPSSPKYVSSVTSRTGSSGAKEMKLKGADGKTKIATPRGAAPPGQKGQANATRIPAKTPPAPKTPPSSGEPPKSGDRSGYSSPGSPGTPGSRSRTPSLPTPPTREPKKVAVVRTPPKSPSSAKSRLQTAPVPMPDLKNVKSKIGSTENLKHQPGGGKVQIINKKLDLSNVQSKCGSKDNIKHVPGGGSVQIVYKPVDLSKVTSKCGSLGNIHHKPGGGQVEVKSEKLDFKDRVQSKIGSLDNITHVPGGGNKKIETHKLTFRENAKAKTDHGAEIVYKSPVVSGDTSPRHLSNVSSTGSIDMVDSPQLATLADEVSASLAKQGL

Row | Structure (SMILES) | Potency | activity, negative = inhibition
1 | Cc1cn2c(=O)cc(COC(=O)c3cccc(NC(=O)COc4ccccc4)c3)nc2s1 | inconclusive: 0.316 µM [inhibitor, full curve, poor fit] | 
2 | CN(C)c1ccc(C(C(=O)NC(C)(C)C)N(C(=O)c2csnn2)C2CC2)cc1 (configuration not stated) |  | inactive: -2.3%
3 | CCOC(=O)c1c(NC(=O)CSc2cn(CCNC(=O)c3ccc(OC)c(OC)c3)c3ccccc23)sc2c1CCC2 |  | inactive: -15.3%
4 | COC(=O)C1CCN(Cc2ccc(OCCCN3CCN(c4ccc([N+](=O)[O-])cc4)CC3)cc2)CC1 | active: 3.98 µM | 
5 | COc1ccc(/C=C/C(=O)N2CCC(c3ccccc3)C2)cc1 (configuration not stated) | inconclusive: 1 µM [inhibitor, full curve] | 
6 | Brc1ccc2c(c1)[C@H]1OCC[C@H]1[C@@H](c1cccs1)N2 | inconclusive: 2.82 µM [inhibitor, partial curve, poor fit] | 
7 | CC(=O)N(C)Cc1ccc(C(=O)CCl)cc1 | inconclusive: 44.7 µM [inhibitor, single point] | 
8 | CC1CCCN(S(=O)(=O)c2ccc(NC(=O)Cn3nnc(-c4ccccc4F)n3)cc2)C1 (configuration not stated) |  | inactive: 7.73%
9 | Cc1noc(C)c1C(=O)N1CCC(CO)(Cc2ccccc2)CC1 |  | inactive: -6.26%
10 | Cc1cc2cc(C(c3nnnn3C(C)(C)C)N(Cc3ccco3)CC3CCCO3)c(=O)[nH]c2cc1C (configuration not stated) | inconclusive: 17.8 µM [inhibitor, partial curve] | 
11 | O=C(Nc1c(Cl)cccc1Cl)c1cccc2c1C(=O)N(C1CCCCC1)C2 | inconclusive: 44.7 µM [inhibitor, single point] | 
12 | O=C(NNc1cc(N2CCCC2)nc(N2CCCC2)n1)c1ccc([N+](=O)[O-])cc1 | inconclusive: 14.1 µM [inhibitor, partial curve] | 
13 | O=[N+]([O-])c1ccc(N2CCN(S(=O)(=O)c3ccc(Cl)cc3)CC2)cc1NCc1cccnc1 | inconclusive: 8.91 µM [inhibitor, partial curve] | 
14 | COc1ccccc1NC(=O)C(C)Sc1nnnn1C (configuration not stated) |  | inactive: -2.15%
15 | O=C(COC(=O)c1ccc([N+](=O)[O-])o1)Nc1cccc(S(=O)(=O)N2CCCCC2)c1 |  | inactive: -0.924%
16 | CCN(CC)S(=O)(=O)c1cc(NS(=O)(=O)c2c(Cl)cccc2Cl)ccc1C |  | inactive: -7.34%
17 | Cc1nc(NCC2CCCO2)[nH]c(=O)c1CCC(C)C (configuration not stated) |  | inactive: -2.11%
18 | COC(=O)c1c(NC(NC(=O)CC(C)C)C(Cl)(Cl)Cl)sc2c1CCC2 (configuration not stated) | inconclusive: 12.6 µM [inhibitor, partial curve, poor fit] | 
19 | CCCCCCN(C(=O)CCCCCN1C(=O)NC(c2ccc(-c3ccccc3)cc2)C(C(=O)OCc2ccccc2)=C1C)C(C(=O)NCCCC)c1ccc(OCC(=O)OC)cc1 (configuration not stated) | inconclusive: 14.1 µM [inhibitor, partial curve] | 
20 | Cc1cc(C)n(CC2CC(=O)N(c3ccc(F)c(Cl)c3)C2=O)n1 (configuration not stated) |  | inactive: -1.26%
21 | CN(C)c1oc(/C=C/c2ccccc2)nc1C#N | inconclusive: 17.8 µM [inhibitor, partial curve] | 
22 | Cc1c(C(=O)Nc2ccc3oc(-c4cccnc4)nc3c2)oc2ccccc12 | inconclusive: 3.55 µM [inhibitor, full curve, poor fit] | 
23 | COc1ccc(CCNC(=O)c2nnn(-c3ccccc3OC)c2N)cc1OC | inconclusive: 28.2 µM [inhibitor, single point] | 

Row | Structure (SMILES) | Potency | activity, negative = inhibition
24 | Cc1cc2nc(SCC(=O)Nc3ccccc3C(=O)O)[nH]c2cc1C | inconclusive: 15.8 µM [inhibitor, partial curve, poor fit] | 
25 | Cc1ccccc1OCCCn1c(CCNC(=O)C2CCCCC2)nc2ccccc21 | inconclusive: 20 µM [inhibitor, single point] | 
26 | Cc1ccc(S(=O)(=O)N2CCCC(c3nc(-c4ccc(C)o4)no3)C2)cc1 (configuration not stated) |  | inactive: -17%
27 | Cc1cc(C)c(C#N)c(SCC2COc3ccccc3O2)n1 (configuration not stated) |  | inactive: -7.86%
28 | Cc1nc2nc(C)c(NS(=O)(=O)c3ccc(F)cc3)c(=O)n2[nH]1 |  | inactive: 3.5%
29 | COc1ccc(/C=C2/N=C(SC)NC2=O)cc1OC | inconclusive: 12.6 µM [inhibitor, partial curve] | 
30 | CCOc1ccc(NC(=O)C2CCCN(c3nn4cc(-c5ccc(OC)cc5)nc4s3)C2)cc1 (configuration not stated) | inconclusive: 12.6 µM [inhibitor, partial curve] | 
31 | C[C@@]12C=Cc3occc3C1CC[C@@]13C[C@@H](CCC12)[C@@](O)(CO)C3 (some centres not stated) | active: 11.2 µM | 
32 | O=C(Nc1cc(S(=O)(=O)N2CCOCC2)ccc1O)c1ccc2c(c1)S(=O)(=O)c1ccccc1C2=O | inconclusive: 3.55 µM [inhibitor, partial curve, poor fit] | 
33 | c1ccc(CSc2n[nH]c(-c3ccco3)n2)cc1 |  | inactive: -6.68%
34 | CCOC(=O)c1cc2c(=O)n3ccccc3nc2n(CCCOC)c1=NC(=O)c1c(-c2ccccc2Cl)noc1C | inconclusive: 3.55 µM [inhibitor, single point] | 
35 | CCOc1ccc(N2C(=O)CC(Sc3nnnn3-c3ccccc3)C2=O)cc1 (configuration not stated) | inconclusive: 25.1 µM [inhibitor, partial curve] | 
36 | O=C(O)c1ccc(N/N=C/C=C/c2ccccc2[N+](=O)[O-])cc1 | active: 12.6 µM | 
37 | CCN1C(=O)C=CC1=O |  | inactive: -2.36%
38 | COCc1cc(S(=O)c2ccc(Cl)cc2)nc(C)n1 (configuration not stated) | inconclusive: 39.8 µM [inhibitor, single point] | 
39 | O=C(NCCc1ccccc1)c1ccc(Cn2c(=O)c3cccn3c3cccnc32)cc1 | inconclusive: 22.4 µM [activator, partial curve] | 
40 | NNc1nc(Nc2ccccc2)nc(N2CCCCC2)n1 | inconclusive: 28.2 µM [inhibitor, single point] | 
41 | C=CCc1ccc(OCC(O)COc2ccc(CC=C)cc2OC)c(OC)c1 | inconclusive: 31.6 µM [inhibitor, partial curve] | 
42 | Cc1ccc2c(c1)Cc1nc3ccccc3nc1-2 | inconclusive: 3.98 µM [inhibitor, full curve] | 
43 | Nc1c(-c2cccc(Cl)c2)cnn1-c1cccc([N+](=O)[O-])c1 | active: 12.6 µM | 
44 | COc1ccc(C(=O)O/N=C(/C)c2cccs2)cc1 | inconclusive: 5.62 µM [inhibitor, partial curve] | 
45 | CCOc1c2ccc(C(=O)NCCCCc3ccccc3)cc2nn1C | inconclusive: 28.2 µM [inhibitor, partial curve, poor fit] | 
46 | O=C1CC(c2nc3ccccc3n2CCC2CCCCC2)CN1c1ccccc1Cl (configuration not stated) | inconclusive: 28.2 µM [inhibitor, partial curve, poor fit] | 

Row | Structure (SMILES) | Potency | activity, negative = inhibition
47 | COCCNC(=O)c1cc2c(-c3ccc(Cl)cc3)nn(C)c2s1 | inconclusive: 35.5 µM [inhibitor, single point] | 
48 | CCc1ccc2nc(N3CCN(C(=O)c4ccccc4)CC3)sc2c1 | inconclusive: 7.08 µM [inhibitor, partial curve] | 
49 | COC(=O)C1=C(C(=O)OC)[C@@H]2N(C)c3ccccc3[C@@]23C[C@@H](C(=O)OC)N(S(=O)(=O)c2ccc([N+](=O)[O-])cc2)C3=N1 |  | inactive: -11.3% [at 11.5 µM]
50 | Cc1nc(COC(=O)c2cc(O)c3ccccc3c2O)cs1 | active: 25.1 µM | 
51 | CCOC(=O)c1c(C)c(C(=O)Nc2cc(OC)ccc2OC)c(C)n1CC | inconclusive: 28.2 µM [inhibitor, partial curve] | 
52 | O=[N+]([O-])c1ccc(/C=N/Nc2ccc3ccccc3c2)o1 | active: 3.16 µM | 
53 | Cc1nc([N+](=O)[O-])c(Br)n1CC(=O)c1ccc(Cl)cc1 | inconclusive: 14.1 µM [inhibitor, partial curve] | 
54 | COc1ccc2[nH]c(O)c(N=NC(=N)N)c2c1 | inconclusive: 15.8 µM [inhibitor, partial curve] | 
55 | CSc1nc2ccc3nc(NC(=O)C4COc5ccccc5O4)sc3c2s1 (configuration not stated) | inconclusive: 0.631 µM [inhibitor, full curve] | 
56 | COc1ccc(OC)c2c1sc(=NC(=O)c1ccco1)n2C | inconclusive: 2.24 µM [inhibitor, full curve] | 
57 | Cc1ccc(NC(=O)Cn2c(CCC(=O)O)ccc2-c2cccs2)cc1Cl | inactive and inconclusive: 28.2 µM [inhibitor, single point] | 
58 | CC1=NOC(=O)/C1=C\c1ccc(-c2ccc(Cl)cc2Cl)o1 | active: 20 µM | 
59 | CC(=O)N1CC=C2C(C#N)=C(N)C(C#N)(C#N)C(CCc3ccccc3)C2C1 (configuration not stated) | inconclusive: 28.2 µM [inhibitor, single point] | 
60 | CC(CC(O)C1OC1(C)C)C1CCC2(C)C3=CCC4C(C)(C)C(=O)CCC4(C)C3CC[C@@]12C (some centres not stated) | inconclusive: 15.8 µM [inhibitor, partial curve, poor fit] | 
61 | CC(C)c1ccccc1NC(=S)NC1CCCCC1 |  | inactive: 4.84%
62 | Cc1ccc2c(CC(=O)N3CCc4ccccc43)coc2c1 | inconclusive: 3.98 µM [inhibitor, full curve] | 
63 | O=C(CCC(=O)OCC(=O)c1ccc(-c2ccccc2)cc1)Nc1cccc2cccnc12 | inconclusive: 1.78 µM [inhibitor, full curve] | 
64 | Cc1ccc2cc(C#N)c(SCC(=O)NCc3ccco3)nc2c1 | inconclusive: 15.8 µM [inhibitor, partial curve] | 
65 | COc1cc(/C=N/Nc2nc3ccccc3o2)cc(OC)c1O | active: 14.1 µM | 
66 | O=C(NC(Cc1cc(=O)[nH]c2ccccc12)C(=O)O)c1ccc(Cl)cc1 (configuration not stated) |  | inactive: -0.712%
67 | N#CC1=C(N)C(C#N)(C#N)[C@H](c2ccsc2)[C@H]2COCC=C12 | inconclusive: 17.8 µM [inhibitor, partial curve] | 
